Variants at the background level are over-represented here.
B1: TPR 5TU (parent)
chain: GGAUCUUCUCGAUCUAACAAAAAAGACAAAUCUGCCACAAAGCUUGAGAGCAUCUUCGGAUGCAGAGGCGGCAGCCUUCGGUGGCGCGAUAGCGCCAACGUUCUCAACUAUGACACGCAAAACGCGUGCUCCGUUGAAUGGAGUUUAUCAUG

Variants of: B1
Test: polymerase ribozyme fitness, log enrichment relative to wild type (log ratio); higher = more active; in vitro selection for triplet polymerase activity
In short: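 Only genotypes with ≥10 input reads and ≥1 read per output were kept after Illumina sequencing of input and output libraries. These libraries were PCR-built, transcribed mutants of each subunit of a heterodimeric triplet polymerase ribozyme, each put through one triplicate in vitro selection round with frozen incubation at −7 °C, gel excision of extended constructs, streptavidin-bead capture and RT-PCR. Fitness is a logarithmic ratio of genotype enrichment to wild-type enrichment, from inverse-variance-weighted replicate averages, with the logarithm in base 2.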
For C36G G46C C57U A64G C87A, the “polymerase ribozyme fitness (log ratio)” value was at most -4.2. For C36G G46U A47C U53A U55A U127C C149U, the “polymerase ribozyme fitness (log ratio)” value was at most -4.2. In the case of C36G G50C C149A, the “polymerase ribozyme fitness (log ratio)” value is reported as at most -4.2. In the case of C36G G59A A113U, the “polymerase ribozyme fitness (log ratio)” value is reported as at most -4.2. In the case of C36G G59A A147G, the “polymerase ribozyme fitness (log ratio)” value is reported as at most -4.2. In the case of C36G G59U C76G C95A G133U, the “polymerase ribozyme fitness (log ratio)” value is reported as at most -4.2. In the case of C36G G62C G86C C95G, the “polymerase ribozyme fitness (log ratio)” value is reported as at most -4.2. With C36G G65A G80A U101G A115G the “polymerase ribozyme fitness (log ratio)” value was at most -4.2. In the case of C36G G88U C95G G141U U148C, the “polymerase ribozyme fitness (log ratio)” value is reported as at most -4.2. With C36G G94U A98G G141A U146A the “polymerase ribozyme fitness (log ratio)” value was at most -4.2. In the case of C36G U53A A73C G88U C95G C96A, the “polymerase ribozyme fitness (log ratio)” value is reported as at most -4.2. With C36G U53A U55G A142U U144G the “polymerase ribozyme fitness (log ratio)” value was at most -4.2. For C36G U53C G67C G92C G126A, the “polymerase ribozyme fitness (log ratio)” value was at most -4.2. In the case of C36G U55A G83C G86A C96A A97U A98U C114U C132G, the “polymerase ribozyme fitness (log ratio)” value is reported as at most -4.2. In the case of C36G U56A C79U, the “polymerase ribozyme fitness (log ratio)” value is reported as at most -4.2. In the case of C36G U78A C85A, the “polymerase ribozyme fitness (log ratio)” value is reported as at most -4.2. For C36U A37U A73G A91U C149U G152U, the “polymerase ribozyme fitness (log ratio)” value was at most -4.2. In the case of C36U A41C A47C C85U C93U C99A A110U A138U C149A, the “polymerase ribozyme fitness (log ratio)” value is reported as at most -4.2. In the case of C36U A47G G68C G133C, the “polymerase ribozyme fitness (log ratio)” value is reported as at most -4.2. For C36U A47U G50U G92A, the “polymerase ribozyme fitness (log ratio)” value was at most -4.2. With C36U A47U G58U U82A G88U G140C the “polymerase ribozyme fitness (log ratio)” value was at most -4.2. With C36U A49U U82A A107C G133C the “polymerase ribozyme fitness (log ratio)” value was at most -4.2. In the case of C36U A52C U55G G86A, the “polymerase ribozyme fitness (log ratio)” value is reported as at most -4.2. With C36U A52U the “polymerase ribozyme fitness (log ratio)” value was -1.56. With C36U A60C A89G U102A A120G the “polymerase ribozyme fitness (log ratio)” value was at most -4.2. For C36U A60G U61A A73U C85G G100U, the “polymerase ribozyme fitness (log ratio)” value was at most -4.2. With C36U A64G G94A A110G the “polymerase ribozyme fitness (log ratio)” value was -4.2. For C36U A89U U90G, the “polymerase ribozyme fitness (log ratio)” value was at most -4.2. For C36U C51G A107U G128A U139G, the “polymerase ribozyme fitness (log ratio)” value was at most -4.2. In the case of C36U C51G C75G C93U C108U C125U G136A, the “polymerase ribozyme fitness (log ratio)” value is reported as at most -4.2. For C36U C51G C76G G81C A107G G143A, the “polymerase ribozyme fitness (log ratio)” value was at most -4.2. With C36U C54U C93G U104G the “polymerase ribozyme fitness (log ratio)” value was at most -4.2. With C36U C54U G59C A60C U78A C85U U145A the “polymerase ribozyme fitness (log ratio)” value was at most -4.2. With C36U C57A C79U the “polymerase ribozyme fitness (log ratio)” value was at most -4.2. In the case of C36U C57A C93U C114G A121G, the “polymerase ribozyme fitness (log ratio)” value is reported as at most -4.2. For C36U C69A A107G, the “polymerase ribozyme fitness (log ratio)” value was at most -4.2. With C36U C79A C87G U127G the “polymerase ribozyme fitness (log ratio)” value was at most -4.2. In the case of C36U C85U A147G A150G, the “polymerase ribozyme fitness (log ratio)” value is reported as at most -4.2. With C36U C87G G94U A98G the “polymerase ribozyme fitness (log ratio)” value was at most -4.2. In the case of C36U C87U, the “polymerase ribozyme fitness (log ratio)” value is reported as -1.6. With C36U C93A G117U the “polymerase ribozyme fitness (log ratio)” value was -3.25. In the case of C36U C93U C96G C114G C116A A138C U139G U148C G152A, the “polymerase ribozyme fitness (log ratio)” value is reported as -4.1. For C36U C99U U139A, the “polymerase ribozyme fitness (log ratio)” value was at most -4.2. For C36U G42C U53A G59A U78A C87U, the “polymerase ribozyme fitness (log ratio)” value was at most -4.2. For C36U G46A A64G G80C, the “polymerase ribozyme fitness (log ratio)” value was at most -4.2. With C36U G50A C95G C118U G133A the “polymerase ribozyme fitness (log ratio)” value was at most -4.2. In the case of C36U G58C A66C G88U A106C G112C G133U U139G G141C, the “polymerase ribozyme fitness (log ratio)” value is reported as at most -4.2. For C36U G58U C76U C85U A121U U135C, the “polymerase ribozyme fitness (log ratio)” value was at most -4.2. For C36U G59A A60C C75G C87U, the “polymerase ribozyme fitness (log ratio)” value was at most -4.2. For C36U G62A A91C C96G A113U, the “polymerase ribozyme fitness (log ratio)” value was at most -4.2. In the case of C36U G71A G80U, the “polymerase ribozyme fitness (log ratio)” value is reported as at most -4.2. With C36U G84C U134A the “polymerase ribozyme fitness (log ratio)” value was at most -4.2. For C36U U53A A119G, the “polymerase ribozyme fitness (log ratio)” value was -1.17. For C36U U53A C72G A91G G143U U146C, the “polymerase ribozyme fitness (log ratio)” value was at most -4.2. In the case of C36U U53G G81C C93A, the “polymerase ribozyme fitness (log ratio)” value is reported as at most -4.2. In the case of C36U U53G U55C G58A G88A C99G, the “polymerase ribozyme fitness (log ratio)” value is reported as at most -4.2. For C36U U55A A66G C96G, the “polymerase ribozyme fitness (log ratio)” value was at most -4.2. With C36U U55A A110U the “polymerase ribozyme fitness (log ratio)” value was at most -4.2. In the case of C36U U55A G94U C99G C108U C132U A142C, the “polymerase ribozyme fitness (log ratio)” value is reported as at most -4.2. With C36U U55G C57U A66G A73G the “polymerase ribozyme fitness (log ratio)” value was at most -4.2. For C36U U55G C118G, the “polymerase ribozyme fitness (log ratio)” value was -1.72. With C36U U56C C79A A91C C108A the “polymerase ribozyme fitness (log ratio)” value was at most -4.2. For C36U U56G A60C U61G C79U C93U C99U G112C U144A A150C, the “polymerase ribozyme fitness (log ratio)” value was at most -4.2. In the case of C36U U90G, the “polymerase ribozyme fitness (log ratio)” value is reported as at most -4.2. For A37C A40C C116U G124U, the “polymerase ribozyme fitness (log ratio)” value was at most -4.2. For A37C A40G A52U A60G G70C G86U A119C, the “polymerase ribozyme fitness (log ratio)” value was at most -4.2. With A37C A40G G70C G88C the “polymerase ribozyme fitness (log ratio)” value was at most -4.2. In the case of A37C A41C A91U A142C, the “polymerase ribozyme fitness (log ratio)” value is reported as at most -4.2. With A37C A41G G50C C75G A115G the “polymerase ribozyme fitness (log ratio)” value was at most -4.2. For A37C A41U A52C C118A, the “polymerase ribozyme fitness (log ratio)” value was -3.42. With A37C A41U G48U A73U C93G C99U G140A the “polymerase ribozyme fitness (log ratio)” value was at most -4.2. For A37C A47G A150C, the “polymerase ribozyme fitness (log ratio)” value was at most -4.2. In the case of A37C A47G G48A G58A G84U A119G, the “polymerase ribozyme fitness (log ratio)” value is reported as at most -4.2. In the case of A37C A49C C79A G88A C96G C105G, the “polymerase ribozyme fitness (log ratio)” value is reported as at most -4.2. For A37C A49C G124A U130G, the “polymerase ribozyme fitness (log ratio)” value was at most -4.2. For A37C A52C C54A C87U U145A, the “polymerase ribozyme fitness (log ratio)” value was at most -4.2. With A37C A52C U53A G92A the “polymerase ribozyme fitness (log ratio)” value was at most -4.2. In the case of A37C A52G C57A G80C G84C A91G A115C G140C A142U, the “polymerase ribozyme fitness (log ratio)” value is reported as at most -4.2. With A37C A52G U82C C85G C95U C105U A142C A150G the “polymerase ribozyme fitness (log ratio)” value was at most -4.2. For A37C A52U C132U, the “polymerase ribozyme fitness (log ratio)” value was -4.13. For A37C A60C A73C G88A C96A C105G, the “polymerase ribozyme fitness (log ratio)” value was at most -4.2. In the case of A37C A60G U61A C95U A97G C116A G117U, the “polymerase ribozyme fitness (log ratio)” value is reported as at most -4.2. With A37C A64U G84C A122G G136A the “polymerase ribozyme fitness (log ratio)” value was at most -4.2.

Source: the RNAGym collection of RNA variant scans (doi:10.1073/pnas.2313332121)
